The assay concerns the target HRgpA-6H (Porphyromonas gingivalis) (UniProt P28784). Kind of assay: ELISA, coated HRgpA-6H. Background: In an ELISA, binding on a coated surface is turned into a signal by an enzyme label.

Not every entry of the source has a single result; some have several. This list holds those alone. The source may hold further records. The values listed for one entry read as repeated measurements on other runs, samples or individuals; a mean can stand among them. Marks such as (2×) give the number of equal values in this list.

Chain of UniProt P28784 (P28784 228-860 limits assumed): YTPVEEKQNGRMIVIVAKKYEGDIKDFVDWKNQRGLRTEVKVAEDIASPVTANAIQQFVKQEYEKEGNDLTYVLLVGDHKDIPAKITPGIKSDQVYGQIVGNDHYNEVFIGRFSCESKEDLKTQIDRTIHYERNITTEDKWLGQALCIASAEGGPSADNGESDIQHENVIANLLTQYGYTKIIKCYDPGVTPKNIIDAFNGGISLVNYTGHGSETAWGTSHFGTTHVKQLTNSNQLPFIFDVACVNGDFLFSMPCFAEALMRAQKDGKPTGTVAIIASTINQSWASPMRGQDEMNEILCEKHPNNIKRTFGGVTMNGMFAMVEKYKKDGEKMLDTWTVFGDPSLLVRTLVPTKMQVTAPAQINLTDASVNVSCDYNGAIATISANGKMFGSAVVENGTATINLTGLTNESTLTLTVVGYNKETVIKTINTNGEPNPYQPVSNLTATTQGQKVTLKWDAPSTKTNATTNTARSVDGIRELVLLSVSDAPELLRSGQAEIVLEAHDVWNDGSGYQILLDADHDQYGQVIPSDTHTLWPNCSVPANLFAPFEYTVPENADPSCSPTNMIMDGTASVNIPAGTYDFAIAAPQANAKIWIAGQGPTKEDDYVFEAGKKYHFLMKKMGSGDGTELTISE

B1: parental mouse (KB001) Fab, FASEBA sample (Fab, V domains shown)
VH: EVQLKQSGPGLVAPSQSLSITCTVSGFSLSIYSVHWVRQPPGKGLEWLGMIWGGGSSDYNSALKSRLSISKDNSKSQVFLKMNSLQTDDTAMYYCARNGNFYAMDYWGQGTSVTVSS
VL: QIVLTQSPAIMSASLGERVTMTCTASSSVSSSFLHWYQQKPGSSPQLWIYSTSNLASGVPARFSGSGSGTSYSLTISSMEAEDAATYYCHQYHHSPYIYTFGGGTKLEIK
With B1, the OD450 nm is 0.806, 0.809, 0.796, 0.831, 0.835, 0.829, 0.823, 0.916, 0.872, 0.852, 0.825, 0.828, 0.842, 0.868, 0.697, 0.729, 0.71, 0.767, 0.705 [lines of one column] and the Ratio OD(Variant)/OD(WT) is 1.05 (4×), 1.03 (3×), 1.06 (3×), 1.07, 1.08, 1.01, 0.825, 0.962, 0.811, 0.974, 0.895 [lines of one column].

B2: KB001 mouse Fab VH I31Y (Fab, V domains shown)
VH: EVQLKQSGPGLVAPSQSLSITCTVSGFSLSYYSVHWVRQPPGKGLEWLGMIWGGGSSDYNSALKSRLSISKDNSKSQVFLKMNSLQTDDTAMYYCARNGNFYAMDYWGQGTSVTVSS
VL: QIVLTQSPAIMSASLGERVTMTCTASSSVSSSFLHWYQQKPGSSPQLWIYSTSNLASGVPARFSGSGSGTSYSLTISSMEAEDAATYYCHQYHHSPYIYTFGGGTKLEIK
B2: the OD450 nm was 0.449, 0.436, 0.462, 0.454, 0.466 [lines of one column] and the Ratio OD(Variant)/OD(WT) was 0.89, 0.864, 0.916, 0.9, 0.924 [lines of one column].

B3: KB001 mouse Fab VL S31L (Fab, V domains shown)
VH: EVQLKQSGPGLVAPSQSLSITCTVSGFSLSIYSVHWVRQPPGKGLEWLGMIWGGGSSDYNSALKSRLSISKDNSKSQVFLKMNSLQTDDTAMYYCARNGNFYAMDYWGQGTSVTVSS
VL: QIVLTQSPAIMSASLGERVTMTCTASSSVSLSFLHWYQQKPGSSPQLWIYSTSNLASGVPARFSGSGSGTSYSLTISSMEAEDAATYYCHQYHHSPYIYTFGGGTKLEIK
B3: the OD450 nm is 0.742, 0.739, 0.745, 0.691 [lines of one column] and the Ratio OD(Variant)/OD(WT) is 0.878, 0.875, 0.882, 0.818 [lines of one column].

B4: KB001 mouse Fab VH G53A (Fab, V domains shown)
VH: EVQLKQSGPGLVAPSQSLSITCTVSGFSLSIYSVHWVRQPPGKGLEWLGMIWAGGSSDYNSALKSRLSISKDNSKSQVFLKMNSLQTDDTAMYYCARNGNFYAMDYWGQGTSVTVSS
VL: QIVLTQSPAIMSASLGERVTMTCTASSSVSSSFLHWYQQKPGSSPQLWIYSTSNLASGVPARFSGSGSGTSYSLTISSMEAEDAATYYCHQYHHSPYIYTFGGGTKLEIK
As for B4, the OD450 nm is 0.664, 0.741, 0.67, 0.699 [lines of one column] and the Ratio OD(Variant)/OD(WT) was 0.834, 0.93, 0.841, 0.878 [lines of one column].

B5: KB001 mouse Fab VL S31G (Fab, V domains shown)
VH: EVQLKQSGPGLVAPSQSLSITCTVSGFSLSIYSVHWVRQPPGKGLEWLGMIWGGGSSDYNSALKSRLSISKDNSKSQVFLKMNSLQTDDTAMYYCARNGNFYAMDYWGQGTSVTVSS
VL: QIVLTQSPAIMSASLGERVTMTCTASSSVSGSFLHWYQQKPGSSPQLWIYSTSNLASGVPARFSGSGSGTSYSLTISSMEAEDAATYYCHQYHHSPYIYTFGGGTKLEIK
B5: the OD450 nm is 0.864, 0.899, 0.824, 0.776 [lines of one column] and the Ratio OD(Variant)/OD(WT) was 1.02, 1.06, 0.975, 0.918 [lines of one column].

B6: KB001 mouse Fab VL S27A (Fab, V domains shown)
VH: EVQLKQSGPGLVAPSQSLSITCTVSGFSLSIYSVHWVRQPPGKGLEWLGMIWGGGSSDYNSALKSRLSISKDNSKSQVFLKMNSLQTDDTAMYYCARNGNFYAMDYWGQGTSVTVSS
VL: QIVLTQSPAIMSASLGERVTMTCTASASVSSSFLHWYQQKPGSSPQLWIYSTSNLASGVPARFSGSGSGTSYSLTISSMEAEDAATYYCHQYHHSPYIYTFGGGTKLEIK
Regarding B6, the OD450 nm is 0.816, 0.808, 0.714, 0.722 [lines of one column] and the Ratio OD(Variant)/OD(WT) is 1.09, 1.08, 0.951, 0.962 [lines of one column].

B7: KB001 mouse Fab VL S31N (Fab, V domains shown)
VH: EVQLKQSGPGLVAPSQSLSITCTVSGFSLSIYSVHWVRQPPGKGLEWLGMIWGGGSSDYNSALKSRLSISKDNSKSQVFLKMNSLQTDDTAMYYCARNGNFYAMDYWGQGTSVTVSS
VL: QIVLTQSPAIMSASLGERVTMTCTASSSVSNSFLHWYQQKPGSSPQLWIYSTSNLASGVPARFSGSGSGTSYSLTISSMEAEDAATYYCHQYHHSPYIYTFGGGTKLEIK
B7: the OD450 nm was 0.869, 0.791, 0.749, 0.789, 0.769 [lines of one column] and the Ratio OD(Variant)/OD(WT) was 1.03, 0.936, 0.886, 0.934, 0.91 [lines of one column].

B8: KB001 mouse Fab VL S57K (Fab, V domains shown)
VH: EVQLKQSGPGLVAPSQSLSITCTVSGFSLSIYSVHWVRQPPGKGLEWLGMIWGGGSSDYNSALKSRLSISKDNSKSQVFLKMNSLQTDDTAMYYCARNGNFYAMDYWGQGTSVTVSS
VL: QIVLTQSPAIMSASLGERVTMTCTASSSVSSSFLHWYQQKPGSSPQLWIYSTSNLAKGVPARFSGSGSGTSYSLTISSMEAEDAATYYCHQYHHSPYIYTFGGGTKLEIK
As for B8, the OD450 nm is 0.841, 0.84, 0.864, 0.846, 0.879 [lines of one column] and the Ratio OD(Variant)/OD(WT) was 1.03 (2×), 1.06, 1.04, 1.08 [lines of one column].

B9: KB001 mouse Fab VL S28F (Fab, V domains shown)
VH: EVQLKQSGPGLVAPSQSLSITCTVSGFSLSIYSVHWVRQPPGKGLEWLGMIWGGGSSDYNSALKSRLSISKDNSKSQVFLKMNSLQTDDTAMYYCARNGNFYAMDYWGQGTSVTVSS
VL: QIVLTQSPAIMSASLGERVTMTCTASSFVSSSFLHWYQQKPGSSPQLWIYSTSNLASGVPARFSGSGSGTSYSLTISSMEAEDAATYYCHQYHHSPYIYTFGGGTKLEIK
On to B9, for which the OD450 nm was 0.674, 0.721, 0.74, 0.678 [lines of one column] and the Ratio OD(Variant)/OD(WT) was 0.898, 0.961, 0.986, 0.903 [lines of one column].

B10: KB001 mouse Fab VL T24S (Fab, V domains shown)
VH: EVQLKQSGPGLVAPSQSLSITCTVSGFSLSIYSVHWVRQPPGKGLEWLGMIWGGGSSDYNSALKSRLSISKDNSKSQVFLKMNSLQTDDTAMYYCARNGNFYAMDYWGQGTSVTVSS
VL: QIVLTQSPAIMSASLGERVTMTCSASSSVSSSFLHWYQQKPGSSPQLWIYSTSNLASGVPARFSGSGSGTSYSLTISSMEAEDAATYYCHQYHHSPYIYTFGGGTKLEIK
In the case of B10, the OD450 nm was 0.822, 0.798, 0.812, 0.704 [lines of one column] and the Ratio OD(Variant)/OD(WT) is 1.07, 1.04, 1.06, 0.915 [lines of one column].

B11: parental mouse (KB001) Fab, FASEBA supernatant (Fab, V domains shown)
VH: EVQLKQSGPGLVAPSQSLSITCTVSGFSLSIYSVHWVRQPPGKGLEWLGMIWGGGSSDYNSALKSRLSISKDNSKSQVFLKMNSLQTDDTAMYYCARNGNFYAMDYWGQGTSVTVSS
VL: QIVLTQSPAIMSASLGERVTMTCTASSSVSSSFLHWYQQKPGSSPQLWIYSTSNLASGVPARFSGSGSGTSYSLTISSMEAEDAATYYCHQYHHSPYIYTFGGGTKLEIK
For B11, the OD450 nm is 0.538, 0.568, 0.55, 0.531, 0.924, 0.945, 0.955, 0.891, 0.898, 0.843, 0.733, 0.795, 0.785, 0.698, 0.476, 0.867, 0.803 [lines of one column] and the Ratio OD(Variant)/OD(WT) is 1.06, 1.05 (2×), 1.09, 1.12, 1.15, 1.16, 1.01, 1.02, 0.996, 0.83, 0.998, 0.992, 0.882, 0.965, 0.971 [lines of one column].

B12: KB001 mouse Fab VH S61E (Fab, V domains shown)
VH: EVQLKQSGPGLVAPSQSLSITCTVSGFSLSIYSVHWVRQPPGKGLEWLGMIWGGGSSDYNEALKSRLSISKDNSKSQVFLKMNSLQTDDTAMYYCARNGNFYAMDYWGQGTSVTVSS
VL: QIVLTQSPAIMSASLGERVTMTCTASSSVSSSFLHWYQQKPGSSPQLWIYSTSNLASGVPARFSGSGSGTSYSLTISSMEAEDAATYYCHQYHHSPYIYTFGGGTKLEIK
For B12, the OD450 nm was 0.603, 0.567, 0.588, 0.547 [lines of one column] and the Ratio OD(Variant)/OD(WT) was 1.22, 1.15, 1.19, 1.11 [lines of one column].

B13: KB001 mouse Fab VH S61D (Fab, V domains shown)
VH: EVQLKQSGPGLVAPSQSLSITCTVSGFSLSIYSVHWVRQPPGKGLEWLGMIWGGGSSDYNDALKSRLSISKDNSKSQVFLKMNSLQTDDTAMYYCARNGNFYAMDYWGQGTSVTVSS
VL: QIVLTQSPAIMSASLGERVTMTCTASSSVSSSFLHWYQQKPGSSPQLWIYSTSNLASGVPARFSGSGSGTSYSLTISSMEAEDAATYYCHQYHHSPYIYTFGGGTKLEIK
With B13, the OD450 nm is 0.562, 0.547, 0.549, 0.472 [lines of one column].

B14: KB001 mouse Fab VL T52A (Fab, V domains shown)
VH: EVQLKQSGPGLVAPSQSLSITCTVSGFSLSIYSVHWVRQPPGKGLEWLGMIWGGGSSDYNSALKSRLSISKDNSKSQVFLKMNSLQTDDTAMYYCARNGNFYAMDYWGQGTSVTVSS
VL: QIVLTQSPAIMSASLGERVTMTCTASSSVSSSFLHWYQQKPGSSPQLWIYSASNLASGVPARFSGSGSGTSYSLTISSMEAEDAATYYCHQYHHSPYIYTFGGGTKLEIK
B14: the OD450 nm was 0.923, 0.848, 0.851, 0.782 [lines of one column].

B15: KB001 mouse Fab VH S56G (Fab, V domains shown)
VH: EVQLKQSGPGLVAPSQSLSITCTVSGFSLSIYSVHWVRQPPGKGLEWLGMIWGGGGSDYNSALKSRLSISKDNSKSQVFLKMNSLQTDDTAMYYCARNGNFYAMDYWGQGTSVTVSS
VL: QIVLTQSPAIMSASLGERVTMTCTASSSVSSSFLHWYQQKPGSSPQLWIYSTSNLASGVPARFSGSGSGTSYSLTISSMEAEDAATYYCHQYHHSPYIYTFGGGTKLEIK
As for B15, the OD450 nm was 0.794, 0.823, 0.861, 0.819 [lines of one column] and the Ratio OD(Variant)/OD(WT) was 0.903, 0.936, 0.979, 0.931 [lines of one column].

B16: KB001 mouse Fab VL S27T (Fab, V domains shown)
VH: EVQLKQSGPGLVAPSQSLSITCTVSGFSLSIYSVHWVRQPPGKGLEWLGMIWGGGSSDYNSALKSRLSISKDNSKSQVFLKMNSLQTDDTAMYYCARNGNFYAMDYWGQGTSVTVSS
VL: QIVLTQSPAIMSASLGERVTMTCTASTSVSSSFLHWYQQKPGSSPQLWIYSTSNLASGVPARFSGSGSGTSYSLTISSMEAEDAATYYCHQYHHSPYIYTFGGGTKLEIK
For the molecule B16, the OD450 nm was 0.783, 0.702, 0.743, 0.737, 0.71 [lines of one column] and the Ratio OD(Variant)/OD(WT) was 1.04, 0.935, 0.99, 0.982, 0.946 [lines of one column].

B17: KB001 mouse Fab VH S30D (Fab, V domains shown)
VH: EVQLKQSGPGLVAPSQSLSITCTVSGFSLDIYSVHWVRQPPGKGLEWLGMIWGGGSSDYNSALKSRLSISKDNSKSQVFLKMNSLQTDDTAMYYCARNGNFYAMDYWGQGTSVTVSS
VL: QIVLTQSPAIMSASLGERVTMTCTASSSVSSSFLHWYQQKPGSSPQLWIYSTSNLASGVPARFSGSGSGTSYSLTISSMEAEDAATYYCHQYHHSPYIYTFGGGTKLEIK
Take B17: the OD450 nm is 0.579, 0.563, 0.617, 0.528, 0.54, 0.552, 0.547, 0.448 [lines of one column] and the Ratio OD(Variant)/OD(WT) is 1.15, 1.12, 1.22, 1.05, 1.07, 1.09, 1.08, 0.888 [lines of one column].

The values above are taken from patent US20240400654A1.
